Publication PMC4336329 (PLoS ONE, 2015)
In all, about 310,000 compounds went through this assay and about 2,200 (0.71%) showed an effect of 50% or more. Effects have a minus sign here. Some of the results follow.

Target: human ether-à-go-go-related gene (hERG) potassium channel (human, UniProt Q12809)
Test: primary screen, population patch clamp on CHO cells stably expressing hERG

Sequence of human ether-à-go-go-related gene (hERG) potassium channel (Q12809 whole entry, looked up): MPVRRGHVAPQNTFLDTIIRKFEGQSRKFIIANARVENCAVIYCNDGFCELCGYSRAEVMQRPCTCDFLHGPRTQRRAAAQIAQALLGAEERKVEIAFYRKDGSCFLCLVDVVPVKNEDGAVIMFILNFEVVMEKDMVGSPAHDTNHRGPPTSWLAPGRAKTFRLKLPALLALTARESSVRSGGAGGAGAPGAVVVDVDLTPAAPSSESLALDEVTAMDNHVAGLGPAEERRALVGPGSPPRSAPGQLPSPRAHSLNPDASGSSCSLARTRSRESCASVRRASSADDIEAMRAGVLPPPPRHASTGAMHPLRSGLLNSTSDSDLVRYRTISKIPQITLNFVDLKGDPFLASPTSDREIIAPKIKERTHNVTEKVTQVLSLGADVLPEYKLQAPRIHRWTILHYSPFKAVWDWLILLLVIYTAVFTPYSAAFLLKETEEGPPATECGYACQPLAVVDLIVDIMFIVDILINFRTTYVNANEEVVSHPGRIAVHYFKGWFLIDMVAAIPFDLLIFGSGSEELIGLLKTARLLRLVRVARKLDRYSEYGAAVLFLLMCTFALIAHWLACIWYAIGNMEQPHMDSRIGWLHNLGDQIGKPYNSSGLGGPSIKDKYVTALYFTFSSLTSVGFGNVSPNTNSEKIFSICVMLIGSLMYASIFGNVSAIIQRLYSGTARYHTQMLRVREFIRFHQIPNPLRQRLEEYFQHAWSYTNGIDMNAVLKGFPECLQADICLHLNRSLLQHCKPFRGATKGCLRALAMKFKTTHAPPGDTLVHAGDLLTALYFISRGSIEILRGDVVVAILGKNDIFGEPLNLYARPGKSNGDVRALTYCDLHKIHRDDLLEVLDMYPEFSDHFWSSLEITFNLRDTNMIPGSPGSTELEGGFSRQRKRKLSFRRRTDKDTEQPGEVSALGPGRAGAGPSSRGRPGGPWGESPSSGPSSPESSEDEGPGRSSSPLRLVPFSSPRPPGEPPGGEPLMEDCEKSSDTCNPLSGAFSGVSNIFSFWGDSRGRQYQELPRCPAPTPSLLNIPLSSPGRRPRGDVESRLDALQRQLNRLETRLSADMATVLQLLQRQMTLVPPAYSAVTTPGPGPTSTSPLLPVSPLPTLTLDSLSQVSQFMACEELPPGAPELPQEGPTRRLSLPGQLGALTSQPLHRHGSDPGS

Row | Compound | hERG current change (%, negative = inhibition) at 1uM
1 | O=C(O)c1cccc2c1C(=O)N(Cc1ccccc1)C2 | -0.282%
2 | O=C(CSc1nc2c(c(=O)n1-c1ccc(Cl)cc1)SCC2)Nc1ccc2c(c1)OCCO2 | 15.6%
3 | CCn1nnnc1SCC(=O)Nc1cc(OC)cc(OC)c1 | 11.1%
4 | O=C(Nc1cccnc1)c1cc(-c2ccc(Br)cc2)on1 | 14.1%
5 | Cc1c(C(=O)N2CCN(c3ccccc3)CC2)oc2c(F)cccc12 | 21.4%
6 | CCNC(=S)NS(=O)(=O)c1ccccc1 | 9.45%
7 | Oc1ccc(Br)cc1C=Nc1cccn2cc(-c3ccccc3)nc12 | 11.6%
8 | COC(=O)c1ccc(C(=O)N=c2sccn2C)cc1 | 1.84%
9 | COc1ccc(NC(=O)c2sc3ncn(CC(=O)N4CCN(c5ccccn5)CC4)c(=O)c3c2C)cc1OC | 23.1%
10 | COc1cccc(CNC(=O)CCCc2nnc3n(C)c(=O)c4sccc4n23)c1 | 10.4%
11 | CCNC(=O)CC1C(=O)N(c2ccc(OC)cc2)C(=S)N1CCc1ccncc1 (stereo not drawn) | 1.1%
12 | Cc1nccn1Cc1ccc(Cl)nc1 | 20.8%
13 | COc1ccc(-c2c(-c3ccccc3OC)sc3ccccc23)cc1 | 11.6%
14 | Cc1ccccc1OCC(=O)NNC(=O)c1ccoc1C | 6.46%
15 | CCCN(CCC)CCCNC(=O)C1CCN(S(=O)(=O)c2cccc3nsnc23)CC1 | 12.5%
16 | Clc1ccc(Oc2cnns2)cc1Cl | 9.79%
17 | O=c1oc2c(O)cccc2cc1-c1nc2ccccc2[nH]1 | 12%
18 | CCOc1ccc(NC(=O)CNC(=O)c2ccco2)cc1 | 20.2%
19 | Cc1ccc(NC(=O)c2ccc3nsnc3c2)c(C)c1 | 12.2%

Row | Compound | hERG current change (%, negative = inhibition) at 1uM
20 | C/C(=N\NC(=O)CSCc1ccc([N+](=O)[O-])cc1)c1ccccc1 | 8.06%
21 | COc1ccc2ccccc2c1CN(C)Cc1ccccc1.O=C(O)C(=O)O | 4.87%
22 | COC(=O)c1nc(N)sc1C | 9.62%
23 | Cc1cc(C)c(S(=O)(=O)N2CCCC(C(=O)NC3CC3)C2)c(C)c1 (stereo not drawn) | -24.5%
24 | COC(=O)c1ccc(N2CCN(C)CC2)c(NC(=O)c2ccc(-c3ccc(Cl)cc3)o2)c1 | 7.15%
25 | CCN(CC)S(=O)(=O)c1cccc(-c2nnc(SCc3nc4ccccc4s3)o2)c1 | 5.17%
26 | CCCc1cc(=O)[nH]c(SCc2nc3ccccc3s2)n1 | 8.57%
27 | O=C(Cn1cnc(S(=O)(=O)N2CCCC2)c1)Nc1ccccc1 | 12.6%
28 | Cc1ccc2oc(C(=O)Nc3cc(C)on3)c(C)c2c1 | 0.256%
29 | COc1cc(NC(=O)c2ccc(C)cc2)c(OC)cc1NC(=O)CN1CCOCC1 | 10.9%
30 | COc1cc([N+](=O)[O-])ccc1NC(=O)CSc1nncn1-c1cccnc1 | 4.81%
31 | O=c1oc(-c2cccc(Cl)c2)nc2c1cnn2-c1ccccc1 | 11.1%
32 | O=c1oc2ccccc2c(N2CCC(c3ccccc3)CC2)c1[N+](=O)[O-] | 7.13%
33 | CC(C)c1ccc(/C=C/C(=O)Nc2nc3ccc([N+](=O)[O-])cc3s2)cc1 | -4.72%
34 | CCOC(=O)c1c(C)c(P(=S)(N2CCOCC2)N2CCOCC2)n(C)c1C | 0.622%
35 | Cc1cnc(C(=O)NC(Cc2ccccc2)c2ccccc2)cn1 (stereo not drawn) | 10.5%
36 | Cn1c(=O)nc2n(Cc3ccccc3)c3ccccc3cc-2c1=O | 9.33%
37 | O=C(CCN1CCN(c2ccccc2)CC1)NNC(=O)Cc1ccccc1Cl | 14.2%
38 | C[C@]12CC[C@H]3C(CCC4(O)CC(O)CC[C@]34C=O)C1=CC[C@H]2c1ccc(=O)oc1 (stereo partly drawn) | 15.7%

Row | Compound | hERG current change (%, negative = inhibition) at 1uM
39 | O=S(=O)(Nc1cc(Cl)cc(Cl)c1)N1CCOCC1 | 13%
40 | O=C(CN1C(=O)NC2(CCCCCC2)C1=O)NCCc1ccc(F)cc1 | -0.0593%
41 | O=C(NC1CC1)C1CCN(C2CCN(C(=O)/C=C/c3cccs3)CC2)CC1 | -4.6%
42 | COc1ccc(Cn2ccnc2)cc1[N+](=O)[O-] | -3.67%
43 | COCCSc1nnc(NC(=O)C2CC(=O)N(C3CCCC3)C2)s1 (stereo not drawn) | 16%
44 | CCc1c(C)sc(NC(=S)N2CCN(CC)CC2)c1C(=O)OC | 14.1%
45 | COc1ccc(NC(=O)NNC(=O)COc2cc(C)c(Cl)c(C)c2)c(OC)c1 | 15.4%
46 | NS(=O)(=O)c1ccc(NC(=O)COC(=O)C2CC(=O)N(Cc3ccccc3)C2)cc1 (stereo not drawn) | 25.2%
47 | Cc1cc(C(=O)N2CCCC(Nc3ccc(F)cc3)C2)n(C)n1 (stereo not drawn) | 18.9%
48 | CN(C)S(=O)(=O)c1ccc(Cl)c(C(=O)OCC(=O)NC(=O)NC2CCCC2)c1 | 18.2%
49 | N#C/C(=C/c1ccc(-c2ccccc2[N+](=O)[O-])o1)C(N)=O | 18.6%
50 | Cc1ccc(S(=O)(=O)c2nc(S(=O)(=O)c3ccc(C)cc3)c(N3CCN(CCO)CC3)s2)cc1 | -0.188%
51 | Cc1nc2n[nH]c(N)c2c2c1COC(C)(C)C2 | -8.72%
52 | COc1ccc2[nH]c(=O)c(CN(Cc3nnnn3Cc3ccco3)C3CCCCC3)cc2c1 | 9.9%
53 | COc1cc(C2C(C#N)=C(N)OC3=C2C(=O)CC(C)(C)C3)cc([N+](=O)[O-])c1O (stereo not drawn) | 4.65%
54 | CCn1c(=O)c2ccccc2n(Cc2ccccc2C)c1=O | 5.67%
55 | Cn1ccc(NC(=O)Nc2cccc(C(F)(F)F)c2)n1 | 3.18%
56 | CCN(CC)S(=O)(=O)c1ccc(Cl)c(NC(=O)c2ccncc2)c1 | -19.1%
57 | Cc1cc(=O)oc2cc(OCC(=O)c3ccccc3)ccc12 | 14.7%
